In all, about 310,000 compounds went through this assay and about 14,000 (4.5%) showed an effect of 50% or more. Effects have a minus sign here. Some of the results follow.
molecular target: human ether-à-go-go-related gene (hERG) potassium channel (human, UniProt Q12809); experiment: primary screen, population patch clamp on CHO cells stably expressing hERG
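Further: peak tail current of the secondary pulse compared with the same well before compound.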

Chain of human ether-à-go-go-related gene (hERG) potassium channel (Q12809 whole entry, looked up): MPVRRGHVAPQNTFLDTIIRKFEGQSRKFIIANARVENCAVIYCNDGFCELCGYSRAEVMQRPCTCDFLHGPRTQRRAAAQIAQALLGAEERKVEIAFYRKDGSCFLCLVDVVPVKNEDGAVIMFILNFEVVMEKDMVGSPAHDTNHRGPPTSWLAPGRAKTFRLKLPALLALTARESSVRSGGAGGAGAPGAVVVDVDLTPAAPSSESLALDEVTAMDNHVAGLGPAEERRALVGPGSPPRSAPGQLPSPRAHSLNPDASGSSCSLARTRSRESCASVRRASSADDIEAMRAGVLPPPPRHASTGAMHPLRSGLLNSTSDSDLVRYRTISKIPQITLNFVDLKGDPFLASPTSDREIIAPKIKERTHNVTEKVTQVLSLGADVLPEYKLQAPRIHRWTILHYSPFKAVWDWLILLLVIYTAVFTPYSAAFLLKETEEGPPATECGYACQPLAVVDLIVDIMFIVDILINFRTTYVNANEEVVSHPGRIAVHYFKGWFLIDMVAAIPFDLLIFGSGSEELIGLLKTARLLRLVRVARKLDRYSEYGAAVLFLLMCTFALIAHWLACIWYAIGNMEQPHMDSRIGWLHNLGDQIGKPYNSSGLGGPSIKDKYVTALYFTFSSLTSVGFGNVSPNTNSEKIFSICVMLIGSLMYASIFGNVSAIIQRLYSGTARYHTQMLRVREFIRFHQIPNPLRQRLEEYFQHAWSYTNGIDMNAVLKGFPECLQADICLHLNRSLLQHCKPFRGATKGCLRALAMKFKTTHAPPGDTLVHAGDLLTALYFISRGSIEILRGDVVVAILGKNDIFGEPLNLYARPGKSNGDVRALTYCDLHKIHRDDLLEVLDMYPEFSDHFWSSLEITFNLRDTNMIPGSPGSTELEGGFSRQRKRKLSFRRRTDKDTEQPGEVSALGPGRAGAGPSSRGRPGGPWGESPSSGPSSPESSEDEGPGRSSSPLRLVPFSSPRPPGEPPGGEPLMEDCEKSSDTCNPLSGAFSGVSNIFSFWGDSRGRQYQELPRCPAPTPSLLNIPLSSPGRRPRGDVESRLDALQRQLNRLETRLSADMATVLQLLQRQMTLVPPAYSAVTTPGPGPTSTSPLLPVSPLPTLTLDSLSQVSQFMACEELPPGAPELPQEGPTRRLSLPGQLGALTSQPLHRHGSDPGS

| SMILES | hERG current change (%, negative = inhibition) at 10uM [%] |
| --- | --- |
| C#CC[N+](C)(C)CCN1C(=O)C2C(c3ccccc3)C=CC(c3ccccc3)C2C1=O.[Br-] (stereo not shown) | 6.61 |
| Cc1noc(C)c1C(=O)NCCCc1ccccc1 | 3.39 |
| CN(C)S(=O)(=O)c1cccc(NC(=S)N/N=C/C(=O)c2ccccc2)c1 | -48.5 |
| CCN(Cc1ccncc1)C(=S)Nc1ccc(Cl)cc1 | 12.8 |
| Cc1ccc(S(=O)(=O)NN2C(=O)/C(=C/c3cccnc3)SC2=S)cc1 | 5.28 |
| O=S(=O)(c1ccc(Cl)cc1)N1CCN=C1SCc1cccnc1 | 4.92 |
| NC(=O)C1CCCN(C(=S)Nc2cccc3ccccc23)C1 (stereo not shown) | -4.07 |
| CCOc1ccccc1NC(=O)CCNC(=O)c1ccco1 | 12.6 |
| COC(=O)CN1C(=O)c2cccc3cccc1c23 | -5.49 |
| COc1ccc(NC(=O)C#Cc2ccccc2)cc1 | -2.36 |
| COc1ccc(Cl)cc1S(=O)(=O)Oc1ccc(NC(C)=O)cc1 | -51.7 |
| O=C(COc1ccccc1)N1CCN(C(=O)COc2ccccc2)CC1 | -32.2 |
| [N-]=[N+]=CC(=O)C(O)(c1ccccc1)C(Cl)c1ccccc1 (stereo not shown) | 9.82 |
| C=CCn1c(SCc2cccc(F)c2)nc2cc(C(=O)N3CCC(C(N)=O)CC3)ccc2c1=O | -34.7 |
| O=C(COC(=O)Cc1ccc(S(=O)(=O)N2CCOCC2)s1)Nc1ccc2c(c1)OCO2 | -19.6 |
| Cc1ccc2nc(N(CCCN(C)C)C(=O)c3ccco3)sc2c1.Cl | -65.4 |
| O=C(O)c1c2c(nc3ccccc13)/C(=C/c1cccc([N+](=O)[O-])c1)CCC2 | 18.8 |
| Cc1ccc(/C=N/NC(=O)c2cccc(S(=O)(=O)N3CCOCC3)c2)o1 | -2.9 |
| O=C(Cc1ccc2c(c1)OCCO2)N1CCN(S(=O)(=O)c2cccs2)CC1 | 10 |
| COc1ccc(C(=O)C23CN4CN(CN(C4)C2)C3)cc1 | 4.01 |

| SMILES | hERG current change (%, negative = inhibition) at 10uM [%] |
| --- | --- |
| O=C(COC(=O)CC1SC(N2CCCC2)=NC1=O)Nc1c(F)c(F)c(F)c(F)c1F (stereo not shown) | -12.6 |
| CCCS(=O)(=O)N1CCN=C1SCc1cccc(C)c1 | -21.6 |
| Cc1nc2c(Br)c(C)nn2c2c1CCC2 | 2.69 |
| CCc1ccc2nc(SCC(=O)N(CC)CC)c(C#N)cc2c1 | -12.8 |
| CC(=O)c1c(O)c2ccccc2n(C)c1=O | 17.1 |
| N#Cc1cc(N)ccc1Sc1ccc(Cl)cc1 | -6.81 |
| CCN(CC(=O)Nc1ccc(NC(C)=O)cc1)C(=O)c1cccc(S(=O)(=O)N2c3ccccc3CC2C)c1 (stereo not shown) | -18.2 |
| COc1cc(C)ccc1OCCOCCOc1ccccc1[N+](=O)[O-] | -29.5 |
| Cc1cccc(NC(=S)N=Nc2c(O)n(C)c3ccc(S(=O)(=O)N4CCOCC4)cc23)c1 | 5.02 |
| CCOC(=O)c1cn2nc(N3CCCCC3)ccc2n1 | -8.23 |
| COc1cccc(-c2csc3nc[nH]c(=O)c23)c1 | 17.3 |
| COC(=O)C(C#N)C(=C1C(=O)CC(C)(C)CC1=O)c1ccc(O)cc1 (stereo not shown) | 17.2 |
| COCCNC(=O)CN1c2ccccc2CC1C (stereo not shown) | 0.0464 |
| O=C(Oc1ccc([N+](=O)[O-])cc1)c1ccc2ccccc2n1 | 2.78 |
| O=c1[nH]nc(Cc2ccccc2)c2ccccc12 | 4.16 |
| CC1CCCN(CCCNC(=O)c2ccc3c(c2)N(Cc2ccccc2F)C(=O)c2ccccc2S3(=O)=O)C1 (stereo not shown) | 2.84 |
| Cn1c(C(=O)N2CCN(C(=O)c3ccco3)CC2)cc2c(=O)n(C)c3ccccc3c21 | -22.3 |
| COc1ccc(C)cc1N(CC(=O)N1CCCC1)S(C)(=O)=O | 10.2 |
| CCN(CC(=O)NCc1ccc(Cl)cc1)C(=O)/C=C/c1cc(OC)c(OC)c(OC)c1 | 3.83 |
| CCc1cccc(NC(=O)CCc2nc3sc4c(c3c(=O)[nH]2)CCCC4)c1 | -20.4 |

| SMILES | hERG current change (%, negative = inhibition) at 10uM [%] |
| --- | --- |
| O=C(COC(=O)/C=C/c1ccccc1F)Nc1nnc(-c2ccccc2)o1 | -2.36 |
| COc1ccc(Cl)cc1NC(=O)NCc1cccnc1 | -2.64 |
| OCCN(Cc1ccccc1)Cc1nc(CC2CC2)no1 | 20.1 |
| CCCNC(=S)N1CCC(c2nc3cc(C)c(C)cc3[nH]2)CC1 | -24.5 |
| O=C(Nc1ccc(F)cc1)/C(=C1/CCCCCN1)[N+](=O)[O-] | -10 |
| CC1CN(C(=O)c2cccn(Cc3c(Cl)cccc3Cl)c2=O)CC(C)O1 (stereo not shown) | 5.84 |
| CCOC(=O)NC(c1cccc(Cl)c1)C1CCCCCC1=O (stereo not shown) | -9.97 |
| CCOc1ccc(NC(=O)CCn2ccnc2)cc1 | 22.8 |
| Cc1ccc(C(=O)NNC(=O)CSc2n[nH]c(-c3cccnc3)n2)cc1 | 15.3 |
| COc1ccc(NC(=O)c2cccc(C#N)c2)cc1NS(=O)(=O)c1ccc(F)cc1 | 8.63 |
| CCCCC(=O)NC(c1ccc(OC)c(OC)c1)c1c(O)ccc2ccccc12 (stereo not shown) | -13.7 |
| CC(NCC1(N2CCOCC2)CCCCC1)C(=O)Nc1ccc(Cl)cc1Cl.O=C(O)C(=O)O (stereo not shown) | -74.6 |
| O=C(CS)Nc1ccc2ccccc2c1 | 20.8 |
| Cn1c(=O)n(C)c2cc(S(=O)(=O)NCCc3ccccc3)ccc21 | 11.6 |
| NNC(=O)c1cncc(Br)c1 | 12.2 |
| O=C(CSc1ncccn1)N1CCC(Cc2ccccc2)CC1 | 0.781 |
| Cl.Cn1cccc1CNCCc1ccccc1 | -1.74 |
| CSCCC(NS(=O)(=O)c1ccccc1F)C(=O)NCc1cccs1 (stereo not shown) | 4.25 |
